Reference: article PMC6108835, “Target-Based Discovery of an Inhibitor of the Regulatory Phosphatase PPP1R15B” (Cell, 2018)

Target: T1, MBP-R15B^340-698-His (human, UniProt Q5SWA1 340-698)
T1 construct: Construct in pMAL-c5x as described in Das et al., 2015; also called PPP1R15B; source: E. coli BL21-Gold (DE3) pLysS, purified (HisTrap, MBPTrap); not shown: MBP, N-terminal, kept; His6, C-terminal, kept
T1 sequence (looked up): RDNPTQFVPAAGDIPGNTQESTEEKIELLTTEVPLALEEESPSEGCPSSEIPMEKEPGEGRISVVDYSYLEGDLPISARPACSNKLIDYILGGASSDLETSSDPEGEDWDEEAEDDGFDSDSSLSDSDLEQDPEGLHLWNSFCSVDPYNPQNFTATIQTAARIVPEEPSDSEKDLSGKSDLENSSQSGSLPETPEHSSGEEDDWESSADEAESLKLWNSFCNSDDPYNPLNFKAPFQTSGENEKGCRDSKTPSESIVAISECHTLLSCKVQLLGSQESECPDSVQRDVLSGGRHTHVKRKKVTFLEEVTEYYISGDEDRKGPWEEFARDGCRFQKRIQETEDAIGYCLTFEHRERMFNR
Assay: pull-down; partially purified bio-PP1c held on neutravidin agarose beads, washed, then incubated with or without 10 μM R15 (A or B) overnight at 4°C in IP buffer (50 mM Tris pH 7.5, 100 mM NaCl, 0.1 mM EGTA, 0.05% Tween 20, 0.1% NP40); Coomassie-stained gel, streptavidin-HRP blot
Conditions: both partners purified

B1: bio-PP1c^[…] (biotinylated PP1c) (enzyme)
chain: not shown
modifications: biotin on the N-terminal biotin acceptor peptide (BAP)
notes: human PP1cγ, catalytic subunit of protein phosphatase 1, […]; Only partially pure before capture; also called PP1cγ; PP1γc^[…]; source: Sf9 insect cells (baculovirus, pDW464, biotinylated in vivo by BirA), partially purified (HiTrap Q, Superdex 200); not shown: biotin acceptor peptide (BAP), N-terminal, kept
B1: binds.
